# The other results are listed elsewhere or left out.
# B1: Gal 3 (Homo sapiens), P17931 (protein)
# chain: MADNFSLHDALSGSGNPNPQGWPGAWGNQPAGAGGYPGASYPGAYPGQAPPGAYPGQAPPGAYHGAPGAYPGAPAPGVYPGPPSGPGAYPSSGQPSAPGAYPATGPYGAPAGPLIVPYNLPLPGGVVPRMLITILGTVKPNANILDFQRGNDVAFHFNPRFNENNRRVIVCNTKLDNNWGREESQSVFPFESGKPFKIQVLVEPDHFKVAVNDAHLLQYNHRVKKLNEISKLGISGDIDLTSASYTMI
# Key:
# Assay in all cases: glycan array binding signal (z-score within array); higher = stronger binding
# Conditions in all cases: glycan notation: IUPAC condensed, linker removed; mutation: R186S
# [1] = biological target: Gal(b1-4)GlcNAc(b1-2)Man(a1-6)[GlcNAc(b1-2)Man(a1-3)]Man(b1-4)GlcNAc(b1-4)GlcNAc
# Outline: (§1)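 Glycan array binding is given as a within-array Z-score, which can be read as non-binding when negative. The arrays, 3228 of them, came from the Consortium for Functional Glycomics database and were retained only where the protein sequence was available. Z-scores were averaged across arrays of the same protein sequence at different concentrations or buffers and across linkers.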
# [2] = biological target: Gal(b1-4)GlcNAc(b1-2)Man(a1-6)[Man(a1-3)]Man(b1-4)GlcNAc(b1-4)GlcNAc
# Outline: as §1
# [3] = biological target: Gal(b1-4)GlcNAc(b1-2)[Gal(b1-4)GlcNAc(b1-4)]Man(a1-3)[Gal(b1-4)GlcNAc(b1-2)Man(a1-6)]Man(b1-4)GlcNAc(b1-4)GlcNAc
# Outline: as §1
# [4] = biological target: Gal(b1-4)GlcNAc(b1-2)[Gal(b1-4)GlcNAc(b1-4)]Man(a1-3)[Gal(b1-4)GlcNAc(b1-2)[Gal(b1-4)GlcNAc(b1-6)]Man(a1-6)]Man(b1-4)GlcNAc(b1-4)GlcNAc
# Outline: as §1
# [5] = biological target: Gal(b1-4)GlcNAc(b1-3)Gal(b1-3)GlcNAc
# Outline: as §1
# [6] = biological target: Gal(b1-4)GlcNAc(b1-3)Gal(b1-4)Glc
# Outline: as §1
# [7] = biological target: Gal(b1-4)GlcNAc(b1-3)Gal(b1-4)GlcNAc
# Outline: as §1
# [8] = biological target: Gal(b1-4)GlcNAc(b1-3)Gal(b1-4)GlcNAc(b1-3)Gal(b1-4)GlcNAc
# Outline: as §1
# [9] = biological target: Gal(b1-4)GlcNAc(b1-3)Gal(b1-4)[Fuc(a1-3)]GlcNAc(b1-3)Gal(b1-4)[Fuc(a1-3)]GlcNAc
# Outline: as §1
# [10] = biological target: Gal(b1-4)GlcNAc(b1-3)GalNAc
# Outline: as §1
# [11] = biological target: Gal(b1-4)GlcNAc(b1-3)[Gal(b1-4)GlcNAc(b1-6)]Gal(b1-4)GlcNAc
# Outline: as §1
# [12] = biological target: Gal(b1-4)GlcNAc(b1-3)[Gal(b1-4)GlcNAc(b1-6)]GalNAc
# Outline: as §1
# [13] = biological target: Gal(b1-4)GlcNAc(b1-3)[GlcNAc(b1-6)]Gal(b1-4)GlcNAc
# Outline: as §1
# [14] = biological target: Gal(b1-4)GlcNAc(b1-6)Gal(b1-4)GlcNAc
# Outline: as §1
# [15] = biological target: Gal(b1-4)GlcNAc(b1-6)GalNAc
# Outline: as §1
# [16] = biological target: Gal(b1-4)GlcNAc(b1-6)[Gal(b1-3)]GalNAc
# Outline: as §1
# Gal3S(b1-3)GalNAc = biological target: Gal3S(b1-3)GalNAc
# Outline: as §1
# Gal3S(b1-3)GlcNAc = biological target: Gal3S(b1-3)GlcNAc
# Outline: as §1
# [17] = biological target: Gal3S(b1-3)[Fuc(a1-4)]GlcNAc
# Outline: as §1
# Gal3S(b1-4)Glc = biological target: Gal3S(b1-4)Glc
# Outline: as §1
# Gal3S(b1-4)Glc6S = biological target: Gal3S(b1-4)Glc6S
# Outline: as §1
# Gal3S(b1-4)GlcNAc = biological target: Gal3S(b1-4)GlcNAc
# Outline: as §1
# Gal3S(b1-4)GlcNAc6S = biological target: Gal3S(b1-4)GlcNAc6S
# Outline: as §1
# [18] = biological target: Gal3S(b1-4)[Fuc(a1-3)]Glc
# Outline: as §1
# [19] = biological target: Gal3S(b1-4)[Fuc(a1-3)]Glc6S
# Outline: as §1
# Gal3S4S(b1-4)GlcNAc = biological target: Gal3S4S(b1-4)GlcNAc
# Outline: as §1
# Gal3S6S(b1-4)GlcNAc = biological target: Gal3S6S(b1-4)GlcNAc
# Outline: as §1
# Gal3S6S(b1-4)GlcNAc6S = biological target: Gal3S6S(b1-4)GlcNAc6S
# Outline: as §1
# Gal4S(b1-4)GlcNAc = biological target: Gal4S(b1-4)GlcNAc
# Outline: as §1
# Gal4S6S(b1-4)GlcNAc = biological target: Gal4S6S(b1-4)GlcNAc
# Outline: as §1
# Gal6S(b1-4)Glc = biological target: Gal6S(b1-4)Glc
# Outline: as §1
# Gal6S(b1-4)Glc6S = biological target: Gal6S(b1-4)Glc6S
# Outline: as §1
# Gal6S(b1-4)GlcNAc = biological target: Gal6S(b1-4)GlcNAc
# Outline: as §1
# Gal6S(b1-4)GlcNAc6S = biological target: Gal6S(b1-4)GlcNAc6S
# Outline: as §1
# GalNAc(a1-3)Gal = biological target: GalNAc(a1-3)Gal
# Outline: as §1
# GalNAc(a1-3)GalNAc = biological target: GalNAc(a1-3)GalNAc
# Outline: as §1
# [20] = biological target: GalNAc(a1-3)GalNAc(a1-3)Gal(a1-4)Gal(b1-4)GlcNAc
# Outline: as §1
# GalNAc(b1-3)Gal = biological target: GalNAc(b1-3)Gal
# Outline: as §1
binder,measurement,setting,value
B1,glycan array binding signal (z-score),[1],-0.084
same,glycan array binding signal (z-score),[2],-0.047
same,glycan array binding signal (z-score),[3],-0.042
same,glycan array binding signal (z-score),[4],-0.075
same,glycan array binding signal (z-score),[5],-0.007
same,glycan array binding signal (z-score),[6],-0.058
same,glycan array binding signal (z-score),[7],-0.061
same,glycan array binding signal (z-score),[8],-0.073
same,glycan array binding signal (z-score),[9],-0.022
same,glycan array binding signal (z-score),[10],-0.026
same,glycan array binding signal (z-score),[11],-0.065
same,glycan array binding signal (z-score),[12],-0.058
same,glycan array binding signal (z-score),[13],-0.022
same,glycan array binding signal (z-score),[14],-0.078
same,glycan array binding signal (z-score),[15],-0.073
same,glycan array binding signal (z-score),[16],-0.024
same,glycan array binding signal (z-score),Gal3S(b1-3)GalNAc,-0.059
same,glycan array binding signal (z-score),Gal3S(b1-3)GlcNAc,-0.072
same,glycan array binding signal (z-score),[17],-0.06
same,glycan array binding signal (z-score),Gal3S(b1-4)Glc,-0.037
same,glycan array binding signal (z-score),Gal3S(b1-4)Glc6S,-0.069
same,glycan array binding signal (z-score),Gal3S(b1-4)GlcNAc,-0.064
same,glycan array binding signal (z-score),Gal3S(b1-4)GlcNAc6S,-0.024
same,glycan array binding signal (z-score),[18],-0.082
same,glycan array binding signal (z-score),[19],-0.016
same,glycan array binding signal (z-score),Gal3S4S(b1-4)GlcNAc,-0.071
same,glycan array binding signal (z-score),Gal3S6S(b1-4)GlcNAc,-0.069
same,glycan array binding signal (z-score),Gal3S6S(b1-4)GlcNAc6S,-0.055
same,glycan array binding signal (z-score),Gal4S(b1-4)GlcNAc,-0.085
same,glycan array binding signal (z-score),Gal4S6S(b1-4)GlcNAc,0.002
same,glycan array binding signal (z-score),Gal6S(b1-4)Glc,-0.063
same,glycan array binding signal (z-score),Gal6S(b1-4)Glc6S,-0.06
same,glycan array binding signal (z-score),Gal6S(b1-4)GlcNAc,-0.067
same,glycan array binding signal (z-score),Gal6S(b1-4)GlcNAc6S,-0.066
same,glycan array binding signal (z-score),GalNAc(a1-3)Gal,-0.075
same,glycan array binding signal (z-score),GalNAc(a1-3)GalNAc,-0.071
same,glycan array binding signal (z-score),[20],-0.072
same,glycan array binding signal (z-score),GalNAc(b1-3)Gal,-0.043
